# Measurements reported in PMC6919601, “Identification of Plasmodium dipeptidyl aminopeptidase allosteric inhibitors by high throughput screening” (PLoS ONE, 2019).
# The campaign covered roughly 110,000 compounds. About 230 (0.21%) showed an effect of 50% or more. This is one part of the list.
# Molecular target: DPAP1 (Plasmodium falciparum, UniProt Q8IIJ9)
# Assay: primary screen, percent inhibition; read by cleavage of a fluorogenic dipeptide substrate; higher = more effect of the substance
# Design: species or system P. falciparum D10 trophozoite lysates; single well
# 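Also: 30 min substrate incubation versus DMSO and 10 µM JCP410 controls.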
# Chain of DPAP1 (Q8IIJ9 whole entry, looked up): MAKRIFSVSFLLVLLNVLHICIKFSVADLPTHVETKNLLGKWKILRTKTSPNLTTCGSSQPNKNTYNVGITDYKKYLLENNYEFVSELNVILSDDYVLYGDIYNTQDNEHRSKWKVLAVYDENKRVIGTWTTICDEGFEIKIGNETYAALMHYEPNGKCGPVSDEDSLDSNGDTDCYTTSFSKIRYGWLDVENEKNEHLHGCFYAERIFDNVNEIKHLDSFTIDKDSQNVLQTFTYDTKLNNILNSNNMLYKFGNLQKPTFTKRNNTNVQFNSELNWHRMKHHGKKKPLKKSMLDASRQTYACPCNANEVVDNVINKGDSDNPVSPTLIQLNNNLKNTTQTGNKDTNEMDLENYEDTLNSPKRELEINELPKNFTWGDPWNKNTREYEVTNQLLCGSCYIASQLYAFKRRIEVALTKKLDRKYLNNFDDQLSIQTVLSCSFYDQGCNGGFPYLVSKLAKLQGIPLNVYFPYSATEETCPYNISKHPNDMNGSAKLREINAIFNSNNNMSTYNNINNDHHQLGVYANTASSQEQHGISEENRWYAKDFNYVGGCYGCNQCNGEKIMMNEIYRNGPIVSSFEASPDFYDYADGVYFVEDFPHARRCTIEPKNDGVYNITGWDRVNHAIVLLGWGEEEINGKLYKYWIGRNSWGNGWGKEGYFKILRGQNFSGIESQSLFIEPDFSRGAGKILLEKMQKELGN
row,SMILES,% Inhibition @ 10 uM [%]
1,CCc1ccc(CNC(=O)C2CCCN(S(=O)(=O)N3CCOCC3)C2)cc1 (stereo not shown),0.0882
2,CC(C(=O)c1ccccc1)n1cnc2ccccc2c1=O (stereo not shown),-4.82
3,O=C(O)CN1C(=O)C(O)=C(C(=O)c2ccc(Cl)cc2)C1c1ccccc1 (stereo not shown),2.75
4,Brc1ccc(C2=CC(c3ccc(Br)cc3)n3ncnc3N2)cc1 (stereo not shown),-1.37
5,CCOC(=O)c1c(N)sc2c1CC1C(=O)N(C3CCCCC3)C(=O)C1C2 (stereo not shown),6.63
6,CSc1ncc(CNCc2ccc3c(c2)OCO3)c(N)n1,0.324
7,CCN1C2=C(C(=O)CCC2)C(c2cc(Br)ccc2OCC(=O)O)C2=C1CCCC2=O,-7.18
8,Nc1cccc(NC(=O)c2cccc(N)c2)c1,-1.45
9,CC1CCCCC1NC(=O)c1ccc(CS(=O)(=O)c2cccc(C(F)(F)F)c2)o1 (stereo not shown),-3.09
10,O=c1[nH]c(=O)n(Cc2ccccc2)cc1F,3.61
11,Cc1nn(C(C)C(=O)NCCCN2CCCC2=O)c(=O)c2c1sc1ccccc12 (stereo not shown),-2.13
12,C=CCOc1cccc(C2C(C(=O)c3cccs3)=C(O)C(=O)N2Cc2cccnc2)c1 (stereo not shown),-12.2
13,CC(C)(C)NC(=O)CSc1nsc(SCC(=O)NC(C)(C)C)c1C#N,-3.26
14,CN(c1ccc(C(=O)Nc2ccc(F)cc2F)cc1)S(C)(=O)=O,-11.4
15,O=C(Nc1ccc2ccccc2c1)c1onc2c1CCCC2,-7.4
16,CCCCn1c(N)c(S(=O)(=O)c2ccccc2)c2nc3ccccc3nc21,7.66
17,CCc1nc2ccccc2c(NC(=O)CN(CC)CC)c1C,0.266
18,COc1ccc2c(CNCc3ccc(OC(C)C)cc3)c(C(=O)O)n(Cc3ccc(F)cc3)c2c1,2.33
19,CN1C(=O)/C(=C2/Sc3ccccc3N2C)S/C1=N\c1ccc(O)cc1,0.52
20,CCOc1ccc(C(=O)Nc2cccc(Cl)c2C)cc1,4
21,COc1ccc(N(C(C)C(=O)Nc2ccccc2Cl)S(C)(=O)=O)cc1 (stereo not shown),-2.44
22,Cc1oc(-c2ccccc2F)nc1CN1CCC(C(=O)NCc2ccccc2Cl)CC1,-1.05
23,O=C(NCCCCNC(=O)c1cnccn1)c1cnccn1,2.32
24,O=C(O)C1CC(=O)N(Cc2ccccc2)/C(=N/c2ccc(F)cc2)S1 (stereo not shown),1.28
25,Cc1n[nH]c(C)c1CCCCCCOc1ccc(C(C)(C)C)cc1,-8.01

row,SMILES,% Inhibition @ 10 uM [%]
1,Cc1ccc(CSCC(=O)Nc2ccccc2)cc1,-4.67
2,N#CC1=C2SCC(O)(c3ccccc3)N2C(=O)CC1c1cccs1 (stereo not shown),-4.74
3,Cc1cc(C(F)(F)F)nc(NC(=O)NC(=O)c2cccc(C(F)(F)F)c2)n1,-11
4,CCOC(=O)c1c(NC(=O)c2ccc3c(c2)OCO3)sc(C(=O)NC2CCCCC2)c1C,-2.98
5,COC(=O)C1C(=O)N(C(C)=O)CC1c1ccccc1 (stereo not shown),3.28
6,CC(=O)c1cc(-c2ccccc2)n(CCC(=O)Nc2nc3ccc(C)cc3s2)c1C,2.87
7,C#CCNC(=O)C1CCN(c2cnccn2)CC1,-2.71
8,Cc1nc(C(Cl)(Cl)Cl)nc2nccc(O)c12,3.25
9,Cc1ccc(CN(CC(=O)N2CCC(C)CC2)S(=O)(=O)c2ccc(Br)cc2)cc1,-4.33
10,CCOc1ccccc1N1CCN(CCC2=C(C)CCCC2(C)C)CC1,-5.31
11,CCN(CC)CCNC(=O)Cn1c(C)nc2ccccc21,-3.26
12,COc1cc(CN2CCN(Cc3ccc(Br)cc3)CC2)cc(OC)c1,7.06
13,O=C(NCc1ccco1)C1CCN(c2nc3ccccc3[nH]2)CC1,-2.18
14,CC(NCC(O)c1ccc([N+](=O)[O-])cc1)C12CC3CC(CC(C3)C1)C2 (stereo not shown),-2.36
15,O=C(NC1CCCC1)c1cccc(OCc2ccccc2)c1,-1.82
16,Cn1c(C(=O)NCCc2c[nH]c3ccccc23)cc2c(=O)n3ccccc3nc21,-3.73
17,O=c1oc(-c2ccc(F)cc2)nc2sc3c(c12)CCCC3,5.03
18,Cc1ccc(CSc2nc3ccncc3n2Cc2ccc(C(=O)NCCN(C)C)cc2)cc1,-0.23
19,CCCCCC(=O)Nc1cccc(-c2nc3ncccc3o2)c1,0.121
20,C=C(C)CN(CC)Cc1c(C)n(C)n(-c2ccccc2)c1=O,1.08
21,COc1ccc(C(=O)Nc2ccc(C)cc2Br)c(OC)c1,-3.45
22,O=c1cccc2n1C[C@H]1C[C@@H]2CN(Cc2ccc([N+](=O)[O-])cc2)C1,-10.2
23,CC1(C)COC2(OC1)C(=O)N(CN1CCOCC1)c1ccccc12,1.61
24,CCOc1ccc(C(=O)Nc2c(C(=O)N3CCC(N4CCCCC4)CC3)oc3ccccc23)cc1,-1.79
